According to PubChem BioAssay AID886 (National Center for Advancing Translational Sciences (NCATS), 2007):
Values joined by “and” are separate entries in the source; they are usually repeats but may differ in a detail not shown here. Equal entries are not always repeated. The campaign covered roughly 73,000 compounds. About 2,500 (3.4%) were called active. The inconclusive results got no clear call from the source; some entries with a clear call stand among them for comparison. Calls come from the whole dose curve; as a rule, active = well fitted inhibition curve with a large enough effect; inconclusive = small, poorly fitted or top-dose-only effect; inactive = no such curve, though single readings can be large or run the other way. Potencies beside an inconclusive call are fits to weak or partial responses and may not hold up.

The compounds below were run against 3-hydroxyacyl-CoA dehydrogenase type-2 (Homo sapiens) (UniProt Q99714) (assay: qHTS Assay for Inhibitors of HADH2 (Hydroxyacyl-Coenzyme A Dehydrogenase, Type II)). Details: recombinant HADH2, NADH fluorescence, beta-hydroxybutyryl-CoA; activity change, negative = inhibition: at 57.1 µM (top of the series).
Sequence of UniProt Q99714 (Q99714 whole entry, looked up): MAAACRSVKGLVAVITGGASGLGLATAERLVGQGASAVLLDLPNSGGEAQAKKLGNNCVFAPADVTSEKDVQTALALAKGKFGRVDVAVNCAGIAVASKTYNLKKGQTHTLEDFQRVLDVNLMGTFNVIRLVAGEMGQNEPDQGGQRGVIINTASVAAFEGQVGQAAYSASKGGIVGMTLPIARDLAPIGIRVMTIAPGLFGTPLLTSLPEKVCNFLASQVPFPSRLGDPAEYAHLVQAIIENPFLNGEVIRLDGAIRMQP
Sequence of UniProt Q99714 (Q99714 whole entry, looked up): as above
Outline: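 Activity measured as NADH fluorescence gain (360/450 nm), taken as the change between first and last reads of a 4-min kinetic run. Conditions: pH 9.0 Tris buffer, 20 nM E. coli-expressed His-tagged enzyme, 1 mM NAD+, 90 uM beta-hydroxybutyryl-CoA; 15-min compound preincubation.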
% is set by controls: 0 for no effect and ±100 for the full control effect; potency is the fitted concentration of half-maximal effect; tags give direction and shape of the fitted curve.
Note: nearly all actives have a fitted effect of over 60% in size.

| Structure (SMILES) | Potency | activity change, negative = inhibition |
| --- | --- | --- |
| CSCSC1=C(C#N)C(c2ccc(Cl)cc2)C(C(C)=O)=C(C)N1 (stereo not drawn) | inconclusive: 15.8 µM [inhibitor, partial curve] | – |
| COc1ccccc1Nc1nc2ccccc2[nH]1 | inactive | – |
| Cc1ccc(-c2csc(NC(=O)c3ccno3)n2)cc1 | active: 20 µM | – |
| Cn1c(=O)c2ncn(CC(=O)Nc3ccc4c5c(cccc35)CC4)c2n(C)c1=O | inconclusive: 25.1 µM [inhibitor, single point] | – |
| O=C(O)C1CCN(C(=O)COc2ccc3c4c(c(=O)oc3c2)CCC4)CC1 | active: 31.6 µM | – |
| CC1(C)CC(=O)C2=C(C1)NC(Nc1nc3ccccc3o1)=NC21CCCCC1 | inconclusive: 3.16 µM [inhibitor, single point] | – |
| CC(=O)C1C(=O)C=C(c2ccco2)CC1c1ccccc1 (stereo not drawn) | inconclusive: 25.1 µM [inhibitor, single point] | – |
| CCNc1ncc2nc(-c3cn(C)c4ccccc34)c(=O)n(CCC#N)c2n1 | inactive | – |
| Cc1noc(C)c1-c1cc(NC2CCNCC2)ncn1 | active: 3.16 µM | – |
| COCCNC(=O)C(C#N)c1nc2ccccc2nc1N1CCCCCC1 (stereo not drawn) | inconclusive: 39.8 µM [inhibitor, single point] | – |
| CCCS(=O)(=O)c1cn2cccc(N)c2c1S(=O)(=O)CCC | inconclusive: 25.1 µM [inhibitor, partial curve] | – |
| CCOC(=O)COn1c(=O)c[n+]([O-])c2ccccc21 | inconclusive: 39.8 µM [inhibitor, single point] | – |
| Cc1cnc(CNc2cc(-c3cccc(C#N)c3)ncn2)cn1 | inactive | – |
| CCc1ccccc1NC(=O)CSc1nc2n[nH]c(C)c2c(=N)n1-c1ccc(OC)cc1 | inactive | – |
| CN(C(=O)c1ccccc1)C1(C)CCS(=O)(=O)C1 (stereo not drawn) | inactive | – |
| CN(C)c1cccc(C(=O)NC2CCCCCC2)c1 | inconclusive: 25.1 µM [inhibitor, partial curve] | – |
| Nc1nc(CC(=O)O)cs1 | inconclusive: 39.8 µM [inhibitor, single point] | – |
| O=C(OCC#CCSc1nnc(-c2cccc3ccccc23)o1)c1cccs1 | active: 31.6 µM | – |
| CCN(CC)C(=O)c1sc(N)c(C#N)c1C | inconclusive: 39.8 µM [inhibitor, single point] | – |
| CN1CCN(S(=O)(=O)c2ccc(=O)[nH]c2)CC1 | inconclusive: 3.16 µM [inhibitor, partial curve, poor fit] | – |
| COc1ccc(-c2noc(CSc3nc(-c4ccccc4)cc(=O)[nH]3)n2)cc1OC | inactive | – |
| Cn1c(=O)c2c(nc(SCCCO)n2Cc2ccccc2Cl)n(C)c1=O | inconclusive: 6.31 µM [inhibitor, single point] | – |
| CN1CCN(c2ccnc(-c3ccccc3C(F)(F)F)n2)CC1 | inconclusive: 15.8 µM [inhibitor, partial curve] | – |
| O=C(O)CCSCC(=O)c1ccc2c(c1)OCCO2 | inconclusive: 3.98 µM [inhibitor, full curve] | – |

| Structure (SMILES) | Potency | activity change, negative = inhibition |
| --- | --- | --- |
| O=c1[nH]c2[nH]c(=S)[nH]c(=S)c2[nH]1 | active: 0.794 µM | – |
| CC(=O)C1=C(C)NC(SCC(=O)c2ccc(F)cc2)=C(C#N)C1c1ccco1 (stereo not drawn) | inconclusive: 15.8 µM [inhibitor, partial curve] | – |
| C[C@H](CN(C)C)C(O)(c1ccccc1)c1ccccc1 | – | inactive: 30.4% [at 11.4 µM] |
| CSc1ncnc2nc[nH]c12 | active: 31.6 µM | – |
| CCOC(=O)C1C(=O)NC(N2CCN(Cc3ccccc3)CC2)=NC1c1ccco1 (stereo not drawn) | inconclusive: 3.16 µM [inhibitor, single point] | – |
| CN1CCN(c2ncncc2-c2cccnc2)CC1 | inconclusive: 12.6 µM [inhibitor, partial curve] | – |
| Cc1ccc2[nH]c(=O)c(CN(CCc3ccccc3)C(c3nnnn3Cc3ccco3)C(C)C)cc2c1 (stereo not drawn) | inconclusive: 39.8 µM [inhibitor, single point] | – |
| CCCC(=O)n1nc(-c2ccco2)nc1SCc1ccccc1 | active: 15.8 µM | – |
| CCOC(=O)c1cccnc1SCC(=O)NC(C)CC (stereo not drawn) | inconclusive: 5.01 µM [inhibitor, single point] | – |
| CC(C)CCNc1nc(N2CCCC2)c2c(c1C#N)CCN(C)C2 | inconclusive: 39.8 µM [inhibitor, single point] | – |
| FC(F)(F)c1cc(-c2ccco2)nc(-n2cnc3ccccc32)n1 | inactive | – |
| COc1cccc(OCc2nnc(SCC(=O)NCc3ccco3)n2CCc2ccccc2)c1 | inconclusive: 25.1 µM [inhibitor, single point] | – |
| O=C(Cc1nc2ccccc2s1)c1ccc(O)cc1O | inconclusive: 31.6 µM [inhibitor, single point] | – |
| O=C(O)c1[nH]nc2c1COc1ccccc1-2 | inconclusive: 25.1 µM [inhibitor, single point] | – |
| CCCOC1(NC(=O)c2ccccc2)C(C)=CC(=O)C=C1C | inconclusive: 7.94 µM [inhibitor, partial curve] | – |
| COc1ccc(-n2nc3c(c2NC(=O)c2cc4ccccc4oc2=O)CS(=O)(=O)C3)cc1 | inconclusive: 31.6 µM [inhibitor, single point] | – |
| O=C1c2ccccc2CC1Sc1nnc(-c2ccncc2)o1 (stereo not drawn) | inconclusive: 3.16 µM [inhibitor, single point] | – |
| N#CCSc1n[nH]c2nc3c(c(=O)n12)C1(CCCC1)Cc1ccccc1-3 | active: 31.6 µM | – |
| NC[C@H](O)c1ccc(O)c(O)c1 | active: 1 µM and active: 794 nM | – |
| COCCn1c(=O)c(-c2cccs2)nc2cncnc21 | inconclusive: 31.6 µM [inhibitor, single point] | – |
| CCc1ccc(C2C(C#N)=C(N)SC(N)=C2C#N)cc1 | inconclusive: 0.251 µM [inhibitor, partial curve] | – |
| COc1cc2[nH]c(=O)n(Cc3ccc(C(=O)NCC4CCCO4)cc3)c(=O)c2cc1OC (stereo not drawn) | inconclusive: 31.6 µM [inhibitor, single point] | – |
| CN(C)c1ncnc2ccc(-c3ccccc3C(F)(F)F)cc12 | inactive | – |
| CC1(C)Cc2c(c(N3CCOCC3)nc3sc(C(=O)N4CCCCC4)c(N)c23)CO1 | inactive | – |
